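In this assay, cells in 96-well plates receive the compound at five concentrations for 48 hours. Endpoints are linearly interpolated between the surrounding concentrations. GI50: concentration for 50% inhibition of growth. TGI marks complete inhibition of growth.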
tested on: NCI-H322M lung; assay: NCI-60 cell line screen, 48 h

| Compound | GI50 [µM] | TGI [µM] |
| --- | --- | --- |
| COc1ccccc1N1CCN(C2=NN=C(c3cccc(Cl)c3)c3ccccc3C2)CC1 | 0.631 | > 100 |
| CC(=O)Nc1cccc(-n2cnc3cc(-c4ccc(O)cc4)ccc32)c1 | 10.5 | 33.4 |
| O=C(N/N=C\c1ccc(F)cc1)c1ccc2nc(-c3ccc(Br)cc3)[nH]c2c1 | 2.52 | 8.18 |

From PubChem BioAssay (NCI)
